Results: patent US20250075006A1

Molecular target: cynomolgus monkey GUCY2C protein, full length, on CHO cells (cynomolgus monkey)
Assay: FACS on CHO-cyno GUCY2C cells, MFI

| Binder | EC50 (read off the curve) [nM] |
| --- | --- |
| hu-Lab306H4-huFc (Fc fusion) EVQLVESGGGLVQPGGSLRLSCAASGFTLDDYAIGWFRQAPGKEREGVICLTSGGLPKYADSVKGRFTISRDNSKNTLYLQMNSLRAEDTAVYYCAASGATSRWNCPPQYDHWGQGTMVTVSS[human IgG1 Fc with C220S (EU numbers) not listed] | 1 |
| hu-Lab306H5-huFc (Fc fusion) EVQLVESGGGLVQPGGSLRLSCATSGFTLDDYAIGWFRQAPGKEREGVICLTSGGLPKYADSVKGRFTISRDNSKNTLYLQMNSLRAEDTAVYYCAASGATSRWNCPPQYDHWGQGTMVTVSS[human IgG1 Fc with C220S (EU numbers) not listed] | 1 |
| hu-Lab306H6-huFc (Fc fusion) EVQLVESGGGLVQPGGSLRLSCAASGFTLDDYAIGWFRQAPGKEREGVICLTSGGLPKYADSVKGRFTISRDNAKNTLYLQMNSLRAEDTAVYYCAASGATSRWNCPPQYDHWGQGTMVTVSS[human IgG1 Fc with C220S (EU numbers) not listed] | 1 |
| hu-Lab306H7-huFc (Fc fusion) EVQLVESGGGLVQPGGSLRLSCAASGFTLDDYAIGWFRQAPGKEREGVICLTSGGLPKYADSVKGRFTISRDNSKNTLYLRMNSLRAEDTAVYYCAASGATSRWNCPPQYDHWGQGTMVTVSS[human IgG1 Fc with C220S (EU numbers) not listed] | 1 |
| hu-Lab322H3-huFc (Fc fusion) EVQLVESGGGLVQPGRSLRLSCAASVLNLDYYAITWFRQAPGKEREGVSCIQGRGTSTNYADSVKGRFTISRDRAKKSAYLQMNSLRAEDTALYYCAVRYVSYGRNTACGLLPESVDHWGQGTMVTVSS[human IgG1 Fc with C220S (EU numbers) not listed] | 0.2 |
| hu-Lab322H4-huFc (Fc fusion) QLQLVESGGGLVQPGRSLRLSCAASVLNLDYYAITWFRQAPGKEREGVSCIQGRGTSTNYADSVKGRFTISRDRAKKSAYLQMNSLRAEDTALYYCAVRYVSYGRNTACGLLPESVDHWGQGTMVTVSS[human IgG1 Fc with C220S (EU numbers) not listed] | 0.2 |
| hu-Lab322H5-huFc (Fc fusion) EVQLVESGGGLVQPGRSLRLSCAASVLNLDYYAITWFRQAPGKEREGVSCIQGRGTSTNYADSVKGRFTISRDRAKKSAYLQMNSLRAEDTATYYCAVRYVSYGRNTACGLLPESVDHWGQGTQVTVSS[human IgG1 Fc with C220S (EU numbers) not listed] | 0.2 |
| hu-Lab322H6-huFc (Fc fusion) EVQLVESGGGLVQPGRSLRLSCAASVLNLDYYAITWFRQAPGKEREGVSCIQGRGTSTNYADSVKGRFTISRDRAKKSAYLQMNSLKPEDTALYYCAVRYVSYGRNTACGLLPESVDHWGQGTMVTVSS[human IgG1 Fc with C220S (EU numbers) not listed] | 0.2 |
